Test results published in the antibiotic and cytotoxicity screens of Wong et al. (2023).
This is one part of the list.

What was measured:
HSkMC = human skeletal muscle cells; experiment: cytotoxicity call (relative viability < 0.9); settings: 10 µM
HepG2 = experiment: cytotoxicity call (relative viability < 0.9); settings: 10 µM
S. aureus RN4220 = experiment: growth inhibition call (relative growth <= 0.2); settings: 50 µM

Structure (SMILES)	cytotoxicity call (HSkMC)	cytotoxicity call (HepG2)	growth inhibition call (S. aureus RN4220)
C=C/C=C/[C@H]1C(=C)CN([C@H](Cc2ccc(-n3cc(COc4ccccc4/C=C(C)/C=C/C(=O)NO)nn3)cc2)C(=O)OC)[C@@H]1[C@H](O)Cc1ccccc1	inactive	inactive	inactive
C[C@H]1CN([C@@H](C)CO)C(=O)c2cccc(NS(=O)(=O)c3ccc(F)cc3)c2O[C@@H]1CN(C)Cc1ccc(Cl)c(Cl)c1	inactive	inactive	inactive
C[C@H]1CN([C@@H](C)CO)C(=O)c2cc(NC(=O)C3CCCCC3)ccc2O[C@@H]1CN(C)C(=O)Nc1ccc(C(F)(F)F)cc1	inactive	inactive	inactive
COc1cccc(-c2cnc3c(c2)C(=O)N([C@H](C)CO)C[C@H](C)[C@H](CN(C)S(=O)(=O)c2cccc(OC)c2)O3)c1	inactive	inactive	inactive
C[C@H]1CN([C@@H](C)CO)C(=O)CCCn2nncc2CO[C@@H]1CN(C)C(=O)Nc1ccc(N2CCN(C)CC2)cc1	inactive	inactive	inactive
CN(C)S(=O)(=O)c1ccc(CN)cc1	inactive	inactive	inactive
Cc1ccc(S(=O)(=O)N(C)C[C@@H]2Oc3c(NC(=O)Nc4cccc5ccccc45)cccc3C(=O)N([C@@H](C)CO)C[C@H]2C)cc1	inactive	inactive	inactive
Cc1cc(N)[nH]n1	inactive	inactive	inactive
COc1ccc(S(=O)(=O)N(C)C[C@@H]2Oc3ccc(NC(=O)CCCN(C)C)cc3C(=O)N([C@@H](C)CO)C[C@H]2C)cc1	inactive	inactive	inactive
C[C@H]1CN([C@@H](C)CO)C(=O)Cc2cc(NC(=O)CCCN(C)C)ccc2O[C@@H]1CN(C)Cc1ccc(Oc2ccccc2)cc1	inactive	active	inactive
C[C@@H]1CN([C@H](C)CO)C(=O)c2cccc(NS(=O)(=O)c3cccs3)c2O[C@H]1CN(C)S(=O)(=O)c1ccc(F)cc1	inactive	inactive	inactive
CN(C)S(=O)(=O)c1ccc(C#N)cc1	inactive	inactive	inactive
CCCNC(=O)N1C[C@H](O)COC[C@@H]2O[C@H](CC(=O)N3CCN(C)CC3)CC[C@H]21	inactive	inactive	inactive
CN(C)CCCNC(=O)C[C@H]1CC[C@H]2[C@@H](COC[C@H](O)CN2S(=O)(=O)c2ccc(F)cc2)O1	inactive	inactive	inactive
COc1ccc(S(=O)(=O)Nc2ccc3c(c2)CC(=O)N([C@H](C)CO)C[C@H](C)[C@H](CN(C)Cc2ccncc2)O3)cc1	inactive	inactive	inactive
CN(CC(=O)NCc1ccccn1)S(=O)(=O)c1cc(Br)cnc1N	inactive	active	inactive
C[C@@H]1CN([C@@H](C)CO)C(=O)c2cc(NS(=O)(=O)c3ccc(F)cc3)ccc2O[C@@H]1CN(C)C(=O)Nc1ccc(C(F)(F)F)cc1	inactive	inactive	inactive
C[C@H]1O[C@@H]2[C@H](O[C@@H]1C)N(S(C)(=O)=O)CCN2S(C)(=O)=O	inactive	inactive	inactive
Cc1cnc(C(=O)O)c[n+]1[O-]	inactive	inactive	inactive
O=C(CN1CCOCC1)N[C@H]1CC[C@H](CCNC(=O)Nc2cc(F)ccc2F)O[C@H]1CO	inactive	inactive	inactive
COc1ccc([Si](C)(C)[C@H]2[C@H](CC(=O)N3Cc4ccccc4C[C@H]3CO)O[C@@]3(C(=O)N(Cc4cccc(N5CCC5=O)c4)c4ccccc43)[C@@H]2C)cc1	inactive	inactive	inactive
COc1ccc(S(=O)(=O)Nc2ccc3c(c2)CC(=O)N([C@@H](C)CO)C[C@@H](C)[C@@H](CN(C)Cc2ccc(Cl)c(Cl)c2)O3)cc1	active	active	inactive
CO[C@@H]1CN(C)C(=O)c2ccc(NC(=O)CN(C)C)cc2OC[C@@H](C)N(C(=O)C2CCCCC2)C[C@H]1C	inactive	inactive	inactive
CC(C)NC(=O)N(C)C[C@H]1OCCCC[C@H](C)Oc2ccc(NC(=O)Nc3ccc(F)cc3)cc2C(=O)N([C@H](C)CO)C[C@@H]1C	inactive	inactive	inactive
COc1ccc(S(=O)(=O)N2C[C@@H](O)COC[C@@H]3O[C@H](CC(=O)NCCCN(C)C)CC[C@H]32)cc1	inactive	inactive	inactive
Clc1ccc2c(c1)CCc1cccnc1C2=C1CCNCC1	inactive	active	inactive
COc1ccc(S(=O)(=O)N[C@H]2CC[C@H](CC(=O)N3CCN(c4ccccc4)CC3)O[C@@H]2CO)cc1	inactive	inactive	inactive
COc1ccc(NC(=O)Nc2ccc3c(c2)C(=O)N([C@H](C)CO)C[C@@H](C)[C@H](CN(C)C(=O)Nc2c(C)noc2C)OCCCC[C@@H](C)O3)cc1	inactive	inactive	inactive

Structure (SMILES)	cytotoxicity call (HSkMC)	cytotoxicity call (HepG2)	growth inhibition call (S. aureus RN4220)
C=CCC[C@@H](Cc1ccc(F)cc1)C(=O)O[C@@H](CNC(=O)[C@@H](CC=C)CC(=O)N[C@H](CO)Cc1ccccc1)c1ccccc1	inactive	active	inactive
COc1cccc(S(=O)(=O)N(C)C[C@@H]2Oc3ncc(-c4cccc(C(=O)N(C)C)c4)cc3C(=O)N([C@H](C)CO)C[C@@H]2C)c1	inactive	inactive	inactive
CO[C@H]1CN(C)C(=O)c2cc(NS(=O)(=O)CC(F)(F)F)ccc2OC[C@@H](C)N(Cc2nccs2)C[C@@H]1C	inactive	inactive	inactive
C[C@H](CO)N1C[C@H](C)[C@@H](CN(C)C(=O)c2ccncc2)Oc2cc(-c3cccc(C#N)c3)ccc2S1(=O)=O	inactive	inactive	inactive
CN1CCN(C(=O)C[C@@H]2C=C[C@@H](NC(=O)c3ccc4c(c3)OCO4)[C@H](CO)O2)CC1	inactive	inactive	inactive
COCC#Cc1ccc2c(c1)O[C@H](CN(C)C(=O)COC)[C@H](C)CN([C@@H](C)CO)S2(=O)=O	inactive	inactive	inactive
C[C@@H]1CN([C@@H](C)CO)C(=O)c2cc(NC(=O)Nc3ccc4c(c3)OCO4)ccc2O[C@@H]1CN(C)Cc1ccc(Oc2ccccc2)cc1	inactive	active	inactive
Cn1cc(S(=O)(=O)N2CCN(c3ccccc3F)CC2)c(=O)n(C)c1=O	inactive	inactive	inactive
N[C@@H](CCC(=O)N[C@@H](CS[N+][O-])C(=O)NCC(=O)O)C(=O)O	inactive	inactive	inactive
C[C@H](CO)N1C[C@H](C)[C@H](CN(C)C(=O)Nc2ccc(C(F)(F)F)cc2)Oc2ccc(NC(=O)CCC(F)(F)F)cc2C1=O	inactive	inactive	inactive
C[C@@H]1CCCCO[C@H](CN(C)S(C)(=O)=O)[C@@H](C)CN([C@@H](C)CO)C(=O)c2cc(NS(=O)(=O)c3ccc(F)cc3)ccc2O1	inactive	inactive	inactive
C=CCOC(=O)[C@H]1[C@@H]2C(=O)O[C@@H](c3ccccc3)[C@@H](c3ccccc3)N2[C@@H](c2ccc(OCCOC(=O)[C@H]3C[C@H]4C(=O)N[C@@H](Cc5ccccc5)C(=O)N4[C@H]3c3cccc(OCCO)c3)cc2)[C@]12C(=O)Nc1ccc(I)cc12	inactive	inactive	inactive
COc1ccc(OC)c(C(O)CNC(=O)CN)c1.Cl (stereo not given)	inactive	inactive	inactive
COc1ccc(S(=O)(=O)Nc2ccc3c(c2)C(=O)N([C@H](C)CO)C[C@@H](C)[C@H](CN(C)Cc2ccc(Oc4ccccc4)cc2)O3)cc1	inactive	active	inactive
CNC(=O)C[C@H]1CC[C@@H]2[C@H](COC[C@H](O)CN2C(=O)c2ccc3c(c2)OCO3)O1	inactive	inactive	inactive
C[C@H]1CN([C@@H](C)CO)C(=O)c2cc(NC(=O)Cc3ccccc3)ccc2O[C@H]1CN(C)C(=O)Nc1cccc2ccccc12	inactive	inactive	inactive
COc1cccc(C#Cc2ccc([C@H]3[C@@H](CO)N4C(=O)CN(S(=O)(=O)c5ccccc5C)C[C@H]34)cc2)c1	inactive	inactive	inactive
COC(=O)[C@H](Cc1ccccc1)N1CC2=C[C@@H]([C@@H](O)CCn3cc(-c4ccc(C(=O)NO)s4)nn3)n3c(=O)n(C)c(=O)n3[C@@H]2[C@@H](C2CC2)O1	inactive	inactive	inactive
C=C1[N-]O[N+](O)=C1CN(Cc1c(C)no[n+]1[O-])OC(C)=O	inactive	inactive	inactive
C[C@H](CO)N1C[C@H](C)[C@@H](CN(C)C(=O)Cc2cccnc2)Oc2ncc(C#CC3(O)CCCC3)cc2C1=O	inactive	inactive	inactive
C[C@@H]1CN([C@@H](C)CO)C(=O)c2cc(NC(=O)Nc3cccc4ccccc34)ccc2O[C@@H]1CN(C)C(=O)Nc1ccc2c(c1)OCO2	inactive	inactive	inactive
C[C@@H]1CCCCO[C@@H](CN(C)Cc2ccc(Cl)c(Cl)c2)[C@@H](C)CN([C@@H](C)CO)C(=O)c2cc(NC(=O)CCC(F)(F)F)ccc2O1	inactive	active	inactive
C[C@H](CO)N1C[C@H](C)[C@H](CN(C)Cc2ccc(Oc3ccccc3)cc2)Oc2ccc(NS(=O)(=O)c3ccc(F)cc3)cc2C1=O	inactive	inactive	inactive
COc1cc2ncnc(Oc3cccc(NC(=O)Nc4cc(C(C)(C)C(F)(F)F)on4)c3)c2cc1OC	inactive	inactive	inactive
C[C@@H]1CN([C@@H](C)CO)C(=O)c2cc(NC(=O)NC3CCCCC3)ccc2O[C@@H](C)CCCCO[C@@H]1CN(C)C(=O)CCC(F)(F)F	inactive	inactive	inactive
CCOC(=O)NNc1nncc2ccccc12.Cl	inactive	inactive	inactive
C[C@@H]1CN([C@H](C)CO)C(=O)Cc2cc(NC(=O)Nc3ccc(F)cc3)ccc2O[C@H]1CN(C)Cc1ccc(-c2ccccc2)cc1	active	active	inactive
